Assay results: PubChem BioAssay AID1159614 (National Center for Advancing Translational Sciences (NCATS), 2016)
The campaign covered roughly 45,000 compounds. About 65 (0.1%) were called active. Calls follow the shape of the dose curve; as a rule, active = well fitted activation curve with a large enough effect; inconclusive = small, poorly fitted or top-dose-only effect; inactive = no such curve, though single readings can be large or run the other way. This is one part of the list.

Biological target: Galactocerebrosidase (Homo sapiens) (UniProt P54803)
Test: A Novel Cell-Based Assay to Identify Small Molecules for B -Galactocerebrosidase; also: 0% is about no effect; nearly all actives have a fitted effect of over 65% in size
Conditions: 145M-Twi-hGALC-G270D cells (Twitcher mouse brain line with human GALC G270D), HMU-beta-Gal fluorescence, 48 h; series mostly up to 57.5 µM; activation: at the top concentration
How it was run: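 Mutant human GALC (G270D), stably expressed in a Twitcher mouse brain cell line lacking endogenous GALC, is measured in live-treated cells via 6-hexadecanoylamino-4-methylumbelliferyl-β-galactoside hydrolysis (0.1 mM final, pH 5.2) with fluorescent detection.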

Sequence of UniProt P54803 (P54803 whole entry, looked up): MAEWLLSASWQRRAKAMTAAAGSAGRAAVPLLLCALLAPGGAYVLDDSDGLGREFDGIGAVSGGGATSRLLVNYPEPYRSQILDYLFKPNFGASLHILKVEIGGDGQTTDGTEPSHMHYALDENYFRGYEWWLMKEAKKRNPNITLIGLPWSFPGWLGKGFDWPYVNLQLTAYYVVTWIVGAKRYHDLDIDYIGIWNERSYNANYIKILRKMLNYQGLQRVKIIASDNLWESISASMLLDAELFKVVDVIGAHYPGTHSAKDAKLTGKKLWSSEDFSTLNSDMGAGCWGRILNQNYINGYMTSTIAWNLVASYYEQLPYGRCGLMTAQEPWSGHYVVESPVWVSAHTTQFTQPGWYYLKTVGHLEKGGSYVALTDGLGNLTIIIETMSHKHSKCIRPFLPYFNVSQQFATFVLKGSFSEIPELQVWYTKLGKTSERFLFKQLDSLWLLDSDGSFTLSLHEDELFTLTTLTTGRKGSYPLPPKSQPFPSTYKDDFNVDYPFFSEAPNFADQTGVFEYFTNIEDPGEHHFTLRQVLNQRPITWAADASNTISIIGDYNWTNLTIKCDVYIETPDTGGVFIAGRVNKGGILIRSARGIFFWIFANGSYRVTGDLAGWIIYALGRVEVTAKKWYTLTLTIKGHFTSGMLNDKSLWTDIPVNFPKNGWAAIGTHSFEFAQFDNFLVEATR

activation, inactive:
Cc1ccc(NS(=O)(=O)c2ccc3[nH]c4c(c3c2)CCCCCC4)cc1 -5.35%
CCN1CCN(C(c2ccccc2F)c2c(O)cc(C)n(CCOC)c2=O)CC1 (configuration not stated) -6.39%
N#Cc1ccc(NC2=NS(=O)(=O)c3ccccc32)cc1 -24.4%
Cc1cc(C)cc(NC(=O)N2CCC(CN3CCc4ccccc4C3)CC2)c1 -10.5%
CCC(=O)N1CCc2cc(CNS(=O)(=O)c3ccc(Br)s3)ccc21 -3.12%
CCc1nc2ccc(C(=O)NCc3ccc(SC)cc3)cc2nc1CC -12.7%
OCCN1CCN(C(c2ccc(Cl)cc2Cl)c2sc3nc(-c4ccco4)nn3c2O)CC1 (configuration not stated) -6.23%
Clc1ccccc1-c1nnc(-c2ccccc2CNc2ccc(Br)cc2)o1 -18.6%
CCOc1ccc(-n2c(SCC(=O)Nc3ccc4c(c3)OCCO4)nc3c([nH]c4ccccc43)c2=O)cc1 -12.3%
CCN(C(=O)Cn1c(=O)nc(-c2ccccc2)c2cc(Cl)ccc21)c1cccc(C)c1 -16.3%
CCOc1ccccc1CNC(=O)c1cnc2sc(N3CCOCC3)nn2c1=O -7.23%
Cc1cncn1CCc1nc2c3ccccc3nc(SCC(=O)Nc3ccc(F)cc3)n2n1 -12.9%
O=C(N/N=C/c1ccc([N+](=O)[O-])o1)c1ccc(O)cc1 -15.9%
CCOc1ccc(CCNC(=O)Cn2ncc3c([nH]c4ccccc43)c2=O)cc1OCC 6.99%
CCc1cccc(NC(=O)C2CCC(CNS(=O)(=O)c3ccc4c(c3)CCCC(=O)N4)CC2)c1 (configuration not stated) -9.11%
Cc1ccc(Cl)cc1N1CCN(C(=O)c2ccc3c(c2)N(Cc2ccccc2F)C(=O)c2ccccc2S3=O)CC1 (configuration not stated) -7.69%
Cc1ccc(CNC(=O)c2sc3nc(-c4ccccc4)cn3c2C)cc1 -13.7%
O=C(CCS(=O)(=O)c1cc(Br)cc2c1N(C(=O)C1CC1)CC2)Nc1ccc(F)cc1 -11.3%
CCc1cccc(NC(=O)C(NS(=O)(=O)c2ccc3nc(C)sc3c2)C(C)C)c1 (configuration not stated) -17.7%
COc1ccc(-c2cc(OC(=O)c3ccccc3)c3c(C)oc(C)c3c(=O)c2)cc1OC -11.3%
CC(C)c1ccc2c(c1)NC(c1ccncc1)=NC(c1cccs1)=N2 -14.9%
COc1cccc(NC(CNS(=O)(=O)c2ccc(Cl)cc2)c2ccccc2)c1 (configuration not stated) -13.7%
C#CCSc1nc(-c2ccccc2)c2cc(Cl)ccc2n1 -9.95%
CCOc1ccccc1NC(=O)CCc1c(C)nc2c(c(C)nn2-c2ccccc2)c1C -19.4%
Cn1nnc2c(NCc3ccccc3)ncnc21 -2.43%
Cc1cc(C)cc(-n2c(C)nc3cc(C(=O)NCc4ccc(F)cc4)ccc32)c1 4.38%
O=C(NCc1ccc(F)cc1)c1ccc(Cn2c(SCc3ccc(F)cc3)nc3cccnc32)cc1 -12.5%
CCCN1C(=O)c2[nH]nc(-c3cccc(OC)c3)c2C1c1ccccn1 (configuration not stated) 2.87%
CCN(CCCNC(=O)c1cc2cc3ccc(OC)cc3nc2s1)c1cccc(C)c1 -11.8%
CC(C)Cn1c(=O)c2ccccc2n2c(CCC(=O)NCc3ccc(Cl)cc3)nnc12 -7.33%
Cc1cccc(Nc2cc(Cl)nc(SCC(=O)O)n2)c1C -10.5%
Cn1c(=O)oc2cc(S(=O)(=O)NCCC(=O)NCc3ccc(F)cc3)ccc21 -10.6%
CCCCn1c(=N)c(C(=O)NC2CCCCC2)cc2c(=O)n3cccc(C)c3nc21 -19.5%
O=C(CCC(=O)N1CCSc2ccccc21)NCc1ccccc1Cl -5.17%
CCOc1ccc(CCNC(=O)c2cn(-c3cccc(OC)c3)c(=O)c3ccccc23)cc1 -5.44%
Cc1cc(C)cc(NC(=O)c2cnn(-c3ccc(C)c(C)c3)c2C2CCNCC2)c1 -21.6%
CCC(C)NC(=O)c1ccc2c(c1)N(Cc1ccccc1F)C(=O)c1ccccc1S2=O (configuration not stated) -14.8%
COc1ccc(NC(=O)Cn2cnc3sc(C)c(S(=O)(=O)N4CCN(c5ccccc5OC)CC4)c3c2=O)cc1OC -26.6%
CCC1CN(C(=O)NCc2ccc(C)cc2)c2cc(Cl)ccc2O1 (configuration not stated) 0.265%
CCN1CCN(Cc2nc3cc(NC(=O)c4cc(OC)c(OC)c(OC)c4)ccc3n2CC)CC1 -17.7%
Cc1ccc(CNC(=O)N2CCC(CN3CCC(C)CC3)CC2)cc1 -2.51%
COc1ccc(S(=O)(=O)c2cn(CC(=O)Nc3cc(C)ccc3C)c3ccccc3c2=O)cc1 -13.3%
COc1ccc(S(=O)(=O)n2nc(-c3ccco3)nc2NCc2ccc(N(C)C)cc2)cc1 -12.9%
COc1cc(OC)cc(-c2nc3nc(C)c(CCC(=O)Nc4ccc(C)c(C)c4)c(C)n3n2)c1 11.6%
Cc1ccc(C)c(N2CCN(C(=O)Cn3ncc4c(=O)oc5ccccc5c43)CC2)c1 -4.8%
CC(C)c1ccc(NC(=O)CN2C(=O)COc3ccc(S(=O)(=O)N4CCCCC4)cc32)cc1 -0.874%
CCc1ccccc1NC(c1nnc(-c2cccc(F)c2)o1)c1ccc(F)cc1Cl (configuration not stated) -14.1%
Cc1ccc2scc(N3CCc4ccccc4C3)c(=O)c2c1 -18.2%
Cc1ccc(NS(=O)(=O)c2ccc3c(c2)n(C)c(=O)n3C)cc1C -10.4%
Cc1cc2nc(-c3ccc(OCc4ccccc4Cl)cc3)cc(C(F)(F)F)n2n1 -14.5%
COc1ccccc1NC(=O)Cn1c(SCC(=O)N(C)c2ccccc2)nc2ccccc21 -11.8%
O=C1N(Cc2ccccc2)c2ccc(Cl)cc2C1(O)c1c[nH]c2ccccc12 (configuration not stated) -3.02%
COc1cccc2c1cc1c(=O)n(CC(=O)N3CCN(c4ccc(Cl)cc4)CC3)nc(C)n12 -10.4%
Fc1ccc(Nc2ncnc3onc(-c4cccc(Cl)c4)c23)c(F)c1 -2.81%
Cc1ccc(S(=O)(=O)NC2(C(F)(F)F)NC(=O)N(CCc3ccccc3)C2=O)cc1 (configuration not stated) -13.9%
CCC(C(=O)NCc1ccco1)n1nc(C)c2c(C)n(-c3ccc(C)cc3)nc2c1=O (configuration not stated) -3.34%
Cn1c(=O)c2c(-c3cccc(Br)c3)n(C(C)(C)CO)cc2n(C)c1=O -20.4%
CN(C)c1ccc(CNC(=O)c2cccc(NC(=O)N3CCSc4ncccc43)c2)cc1 -24.1%
COc1cccc(C(=O)N2CCN(CCc3ccncc3)CC2)c1 13.4%
Cc1cccc(C(=O)NCC(=O)OCc2cc(=O)n3nc(CC(C)C)sc3n2)c1 -9.67%
O=C(Nc1ccccc1Cl)C1CCN(c2nc3ccccc3nc2C(F)(F)F)CC1 -7.84%
O=C(NCCn1cc(SCc2ccccc2Cl)c2ccccc21)c1cccs1 0.58%
